Over roughly 81,000 sequences, “one-hybrid fitness for binding parS DNA” has its median near -0.17; the highest 2% begin near 0.51. This is one part of the list.

The text below walks through data of a collection of fitness landscapes (doi:10.1016/j.celrep.2020.107928).

The labels stand for the following.
B1: Caulobacter ParB omega fusion; a variant is named by its letters at X, in order, B8GW30 (parent)
chain: MESVVVGEPGMSEGRRGLGRGLSALLGEVDAAPAQAPGEQLGGSREAPIEILQRNPDQPRRTFREEDLEDLSNSIREKGVLQPILVRPSPDTAGEYQIVAGERAWRAAQRAGLKTVPIMVRELDDLAVLEIGIIENVQRADLNVLEEALSYKVLMEKFERTQENIAQTIGKSXSHVANXMRLLXLPDEVQSYLVSGELTAXHARAIAAAADPVALAKQIIEGGLSVRETEALARKAPNLSAGKSKGGRPPRVKDTDTQALESDLSSVLGLDVSIDHRGSTGTLTITYATLEQLDDLCNRLTRGI

The variants in this assay derive from B1. Kind of assay: one-hybrid fitness for binding parS DNA (scaled: cognate 1, non-cognate 0); higher = stronger binding. The following applies: with parS DNA site. Put shortly: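 Selection: bacterial one-hybrid in E. coli USO, HIS3 reporter with the site 19 bp from the promoter, 48 hours at 37°C on M9-minus-histidine plus 0.1 mM IPTG and 5 mM 3-AT. Libraries were Caulobacter ParB with four randomised specificity codons, sequenced on Illumina before and after selection. Fitness is the rescaled log change in variant-to-wild-type read ratio, anchored to the cognate and non-cognate sites.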
As to LWKC, the “one-hybrid fitness for binding parS DNA” value is at most 0.2. Then TYDK, with at most 0.2; and MIRR, with at most 0.2.

In the case of GTQP, the “one-hybrid fitness for binding parS DNA” value is at most 0.2.

As for HKKH, the “one-hybrid fitness for binding parS DNA” value is at most 0.2. The result for NQRV reads at most 0.2. Then SQHF, with at most 0.2; and VVTC, with at most 0.2; and RGKA, with 0.475. The result for CCVR reads at most 0.2. On to SLPW, for which the “one-hybrid fitness for binding parS DNA” value was at most 0.2. Then AYVM, with at most 0.2. As to PVAH, the “one-hybrid fitness for binding parS DNA” value was at most 0.2.

With CKAL, the “one-hybrid fitness for binding parS DNA” value was at most 0.2. Then NHLI, with at most 0.2; and LVAS, with at most 0.2; and THFT, with at most 0.2. With APLT, the “one-hybrid fitness for binding parS DNA” value was at most 0.2. For VWAG, the “one-hybrid fitness for binding parS DNA” value was at most 0.2. In the case of RWDT, the “one-hybrid fitness for binding parS DNA” value is 0.512. The result for PGRF reads at most 0.2; that for TIRA, at most 0.2. Then VPPD, with at most 0.2; and RNQS, with 0.921. As to NQMG, the “one-hybrid fitness for binding parS DNA” value is at most 0.2.

Take RVCP: the “one-hybrid fitness for binding parS DNA” value is at most 0.2.

Take YQMY: the “one-hybrid fitness for binding parS DNA” value was at most 0.2. Consider EAYG, for which the “one-hybrid fitness for binding parS DNA” value was at most 0.2. RYWI: the “one-hybrid fitness for binding parS DNA” value was at most 0.2.

KHRT: the “one-hybrid fitness for binding parS DNA” value is at most 0.2.

On to QYES, for which the “one-hybrid fitness for binding parS DNA” value was at most 0.2. On to PQHS, for which the “one-hybrid fitness for binding parS DNA” value was at most 0.2. APQI: the “one-hybrid fitness for binding parS DNA” value is at most 0.2. Then KLMV, with at most 0.2. Then MRML, with at most 0.2; and PWPA, with at most 0.2; and YLST, with at most 0.2. Consider FCQR, for which the “one-hybrid fitness for binding parS DNA” value was at most 0.2.

For DYHV, the “one-hybrid fitness for binding parS DNA” value was at most 0.2. In the case of WWKS, the “one-hybrid fitness for binding parS DNA” value was at most 0.2. Then GTSW, with at most 0.2; and IYHY, with at most 0.2. Then KWHT, with at most 0.2; and GGRC, with at most 0.2; and AGYK, with at most 0.2.

As to KEKL, the “one-hybrid fitness for binding parS DNA” value was at most 0.2. For the variant FRQS, the “one-hybrid fitness for binding parS DNA” value was at most 0.2.

For the variant RYVH, the “one-hybrid fitness for binding parS DNA” value was 0.253. LHGD: the “one-hybrid fitness for binding parS DNA” value was at most 0.2. Turning to FALG, the “one-hybrid fitness for binding parS DNA” value is at most 0.2. Then QLWY, with at most 0.2; and TYAR, with at most 0.2. Then GYSY, with at most 0.2. The result for YRPY reads at most 0.2. As to SSFL, the “one-hybrid fitness for binding parS DNA” value is at most 0.2. In the case of KIAW, the “one-hybrid fitness for binding parS DNA” value was at most 0.2. The result for QGED reads at most 0.2; that for GRDV, at most 0.2. The result for SWMT reads at most 0.2; that for VAVT, at most 0.2; that for ECNS, at most 0.2. Then WRRL, with at most 0.2; and YELK, with at most 0.2. For the variant RFWK, the “one-hybrid fitness for binding parS DNA” value was at most 0.2.

On to PNVS, for which the “one-hybrid fitness for binding parS DNA” value is at most 0.2. Then HWHY, with at most 0.2; and EPRV, with at most 0.2; and IKNF, with at most 0.2. Then TYCR, with at most 0.2; and QAVK, with at most 0.2; and TLDQ, with at most 0.2.

HRRA: the “one-hybrid fitness for binding parS DNA” value was at most 0.2.

Take FCHC: the “one-hybrid fitness for binding parS DNA” value is at most 0.2.

IKNK: the “one-hybrid fitness for binding parS DNA” value was at most 0.2. For the variant CAWK, the “one-hybrid fitness for binding parS DNA” value is at most 0.2. Then MKRG, with at most 0.2.

HAPY: the “one-hybrid fitness for binding parS DNA” value was at most 0.2. Then YEPR, with at most 0.2; and NPGV, with at most 0.2.

As to AWDM, the “one-hybrid fitness for binding parS DNA” value is at most 0.2. Regarding ANNR, the “one-hybrid fitness for binding parS DNA” value was at most 0.2.

With GVTC, the “one-hybrid fitness for binding parS DNA” value was at most 0.2. The result for LQNV reads at most 0.2.

For DKTS, the “one-hybrid fitness for binding parS DNA” value was at most 0.2. Consider FMKG, for which the “one-hybrid fitness for binding parS DNA” value was at most 0.2. The result for LSRK reads at most 0.2; that for QSPT, at most 0.2; that for PDKV, at most 0.2. Regarding PVSW, the “one-hybrid fitness for binding parS DNA” value is at most 0.2. Then TKDG, with at most 0.2; and GQRF, with at most 0.2; and EHFC, with at most 0.2. The result for HFAR reads at most 0.2. In the case of PLFL, the “one-hybrid fitness for binding parS DNA” value was at most 0.2.

For HFCA, the “one-hybrid fitness for binding parS DNA” value was at most 0.2.

As to LRCS, the “one-hybrid fitness for binding parS DNA” value is at most 0.2. Consider CWTM, for which the “one-hybrid fitness for binding parS DNA” value is at most 0.2.

Regarding KAAP, the “one-hybrid fitness for binding parS DNA” value was at most 0.2. The result for LPIW reads at most 0.2. Then ASMG, with at most 0.2.

For the variant TMLC, the “one-hybrid fitness for binding parS DNA” value is at most 0.2. The result for RNDP reads at most 0.2.

NENT: the “one-hybrid fitness for binding parS DNA” value was at most 0.2.

Take IKPT: the “one-hybrid fitness for binding parS DNA” value was at most 0.2. Take QSYR: the “one-hybrid fitness for binding parS DNA” value is at most 0.2. As for NAPR, the “one-hybrid fitness for binding parS DNA” value is at most 0.2. On to NPCS, for which the “one-hybrid fitness for binding parS DNA” value is at most 0.2. As for VSCL, the “one-hybrid fitness for binding parS DNA” value is at most 0.2.

On to FFIR, for which the “one-hybrid fitness for binding parS DNA” value was at most 0.2. Regarding QVNE, the “one-hybrid fitness for binding parS DNA” value was at most 0.2. DVKC: the “one-hybrid fitness for binding parS DNA” value is at most 0.2. The result for DLSH reads at most 0.2; that for CRTH, at most 0.2; that for RGWE, at most 0.2. On to KLEV, for which the “one-hybrid fitness for binding parS DNA” value is at most 0.2.

For WTFG, the “one-hybrid fitness for binding parS DNA” value is at most 0.2. Take EAAT: the “one-hybrid fitness for binding parS DNA” value was at most 0.2. Turning to RGYD, the “one-hybrid fitness for binding parS DNA” value is at most 0.2. With WTTW, the “one-hybrid fitness for binding parS DNA” value was at most 0.2. Turning to RRSR, the “one-hybrid fitness for binding parS DNA” value is at most 0.2.

Consider EPSE, for which the “one-hybrid fitness for binding parS DNA” value was at most 0.2.

Regarding TEKS, the “one-hybrid fitness for binding parS DNA” value was at most 0.2.

Consider RPHV, for which the “one-hybrid fitness for binding parS DNA” value was at most 0.2. The result for SALL reads at most 0.2; that for WVYD, at most 0.2. Then WGQT, with at most 0.2; and PSYS, with at most 0.2; and SMSS, with at most 0.2. Then RYYE, with at most 0.2; and MYSS, with at most 0.2. In the case of WPYA, the “one-hybrid fitness for binding parS DNA” value is at most 0.2. For ARIY, the “one-hybrid fitness for binding parS DNA” value was at most 0.2. Then RNIA, with 0.265; and TSDT, with at most 0.2.

As to PSKD, the “one-hybrid fitness for binding parS DNA” value was at most 0.2. The result for RARQ reads at most 0.2; that for ADQE, at most 0.2; that for ESYG, at most 0.2. The result for RCFS reads 1.03; that for YNMN, at most 0.2. Then ESND, with at most 0.2; and SFTT, with at most 0.2; and WLVY, with at most 0.2. GGQH: the “one-hybrid fitness for binding parS DNA” value was at most 0.2. The result for HWGT reads at most 0.2; that for QNDA, at most 0.2; that for CRTV, at most 0.2.

Consider GWMR, for which the “one-hybrid fitness for binding parS DNA” value was at most 0.2.

For IRAI, the “one-hybrid fitness for binding parS DNA” value was at most 0.2. Then FARL, with at most 0.2; and SDST, with at most 0.2; and RISC, with 0.969. Then WRLC, with at most 0.2; and REWM, with at most 0.2.

In the case of PAIN, the “one-hybrid fitness for binding parS DNA” value was at most 0.2.

As to LRLN, the “one-hybrid fitness for binding parS DNA” value is at most 0.2. Then RFGG, with 0.918; and NMKE, with at most 0.2; and SRAD, with at most 0.2. Then CGAK, with at most 0.2; and TRRE, with at most 0.2; and RFGD, with at most 0.2.

PFFS: the “one-hybrid fitness for binding parS DNA” value was at most 0.2. Then RYKA, with 0.793. The result for PARD reads at most 0.2; that for HSIK, at most 0.2; that for VLSN, at most 0.2. The result for RQAW reads 0.228; that for PIIS, at most 0.2; that for RSIP, at most 0.2. LMAM: the “one-hybrid fitness for binding parS DNA” value is at most 0.2.

As to AQEA, the “one-hybrid fitness for binding parS DNA” value is at most 0.2.

As for LRWG, the “one-hybrid fitness for binding parS DNA” value was at most 0.2.

As to FPPN, the “one-hybrid fitness for binding parS DNA” value was at most 0.2. The result for RSYC reads 0.931.

For PAYL, the “one-hybrid fitness for binding parS DNA” value is at most 0.2. For the variant CDTQ, the “one-hybrid fitness for binding parS DNA” value was at most 0.2. Take YNSP: the “one-hybrid fitness for binding parS DNA” value is at most 0.2. On to RMWF, for which the “one-hybrid fitness for binding parS DNA” value was at most 0.2. Then RIKS, with 0.822; and GSDC, with at most 0.2. Turning to CMHC, the “one-hybrid fitness for binding parS DNA” value is at most 0.2. The result for ETPE reads at most 0.2.

As to GTSC, the “one-hybrid fitness for binding parS DNA” value was at most 0.2. The result for SQAA reads at most 0.2. Then HCTG, with at most 0.2. For RIGL, the “one-hybrid fitness for binding parS DNA” value is at most 0.2. On to LGLC, for which the “one-hybrid fitness for binding parS DNA” value is at most 0.2.

Consider EWGG, for which the “one-hybrid fitness for binding parS DNA” value is at most 0.2. Then APQA, with at most 0.2; and VHNL, with at most 0.2. Then CHMS, with at most 0.2; and KKPS, with at most 0.2; and SCPF, with at most 0.2. The result for NHPF reads at most 0.2.
